About 14,000 (4.5%) of roughly 310,000 compounds showed an effect of 50% or more. The effect is printed as a negative number. Some of the results follow.
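Further: peak tail current of the secondary pulse compared with the same well before compound.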

The target in the assay is human ether-à-go-go-related gene (hERG) potassium channel (human, UniProt Q12809). Nature of the assay: primary screen, population patch clamp on CHO cells stably expressing hERG.
Chain of human ether-à-go-go-related gene (hERG) potassium channel (Q12809 whole entry, looked up): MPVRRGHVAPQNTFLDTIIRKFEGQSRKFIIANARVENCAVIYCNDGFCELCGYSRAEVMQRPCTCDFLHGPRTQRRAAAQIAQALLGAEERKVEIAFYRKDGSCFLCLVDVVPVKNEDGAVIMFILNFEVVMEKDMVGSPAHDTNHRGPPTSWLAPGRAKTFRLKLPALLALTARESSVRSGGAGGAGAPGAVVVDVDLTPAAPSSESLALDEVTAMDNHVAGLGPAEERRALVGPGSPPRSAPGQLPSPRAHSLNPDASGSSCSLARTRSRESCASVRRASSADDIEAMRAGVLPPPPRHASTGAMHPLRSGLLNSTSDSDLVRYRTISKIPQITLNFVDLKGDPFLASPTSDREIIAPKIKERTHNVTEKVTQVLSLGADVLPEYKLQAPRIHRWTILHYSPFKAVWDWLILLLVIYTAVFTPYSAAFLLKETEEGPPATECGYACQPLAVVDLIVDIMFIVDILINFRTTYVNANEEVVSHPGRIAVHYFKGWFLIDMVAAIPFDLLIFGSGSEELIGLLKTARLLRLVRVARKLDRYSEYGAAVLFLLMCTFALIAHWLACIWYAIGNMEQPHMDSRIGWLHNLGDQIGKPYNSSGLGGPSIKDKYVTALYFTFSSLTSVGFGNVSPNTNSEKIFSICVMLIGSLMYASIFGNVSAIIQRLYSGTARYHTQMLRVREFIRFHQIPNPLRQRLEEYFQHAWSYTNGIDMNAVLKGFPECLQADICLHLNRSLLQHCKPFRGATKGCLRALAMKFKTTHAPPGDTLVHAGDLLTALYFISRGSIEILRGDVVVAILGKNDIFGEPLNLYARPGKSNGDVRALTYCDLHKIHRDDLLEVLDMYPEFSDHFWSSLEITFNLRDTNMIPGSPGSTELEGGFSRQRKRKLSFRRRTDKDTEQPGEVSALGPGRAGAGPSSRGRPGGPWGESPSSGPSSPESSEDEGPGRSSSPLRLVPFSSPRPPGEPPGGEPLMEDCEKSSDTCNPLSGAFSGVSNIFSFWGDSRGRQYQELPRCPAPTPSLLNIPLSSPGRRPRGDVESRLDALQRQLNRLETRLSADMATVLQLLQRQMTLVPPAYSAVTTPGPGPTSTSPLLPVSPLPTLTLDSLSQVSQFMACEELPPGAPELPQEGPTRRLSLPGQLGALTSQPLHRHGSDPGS
As to `CC(C)(Oc1ccc(Cl)cc1)C(=O)NCCN1C(=O)S/C(=C/c2cccnc2)C1=O`, the “hERG current change (%, negative = inhibition) at 10uM” value was -62.9%. Take `Br.c1cc2c(cc1-c1csc(NNC3=NCCCCC3)n1)OCCO2`: the “hERG current change (%, negative = inhibition) at 10uM” value was -5.63%.

Consider `Cl.N=C1CCCN1c1ccccc1O`, for which the “hERG current change (%, negative = inhibition) at 10uM” value was 11.2%. Turning to `O=C(Cc1cccc2ccccc12)NCCC1=CCCCC1`, the “hERG current change (%, negative = inhibition) at 10uM” value is on record as -1.41%. The figure for `O=C(c1ccc2ccccc2n1)N1CCN(Cc2c(F)cccc2Cl)CC1` is -4.81%. Then `CC(O)c1cccc(NC(=O)CC(c2ccccc2)c2ccccc2)c1` (stereo not drawn), with 7.9%; and `Cc1cc(C)nc(N2CCN(C(=O)c3ccc(S(=O)(=O)N4CCCCCC4)cc3)CC2)n1`, with 7.66%; and `O=C(CCn1c(=O)oc2ccccc21)Nc1ccccc1`, with 13.8%. For `O=C(Nc1nccs1)C1CCN(S(=O)(=O)c2cnc[nH]2)CC1`, the “hERG current change (%, negative = inhibition) at 10uM” value is 11.8%. Then `CC(C(=O)NC1C=CS(=O)(=O)C1)N1C(=O)/C(=C/c2cccc(Cl)c2)SC1=S` (stereo not drawn), with -2.47%. For the compound `CC1CCN(c2nc3ccc(C(=O)N4CCN(Cc5ccc6c(c5)OCO6)CC4)cc3s2)CC1`, the “hERG current change (%, negative = inhibition) at 10uM” value is -3.06%.

Regarding `COc1ccc(CCN(C)S(=O)(=O)c2cn(C)c(=O)n(C)c2=O)cc1OC`, the “hERG current change (%, negative = inhibition) at 10uM” value stood at 5.74%. Turning to `Cc1ccccc1Nc1ncnc2c1cnn2-c1ccccc1`, the “hERG current change (%, negative = inhibition) at 10uM” value was -5.11%. Then `Cc1ccc(-c2cc(C(=O)OCC(=O)NC3CC3)c3ccccc3n2)cc1`, with -1.91%; and `C/C(=N\NC(=O)c1ccc(NS(=O)(=O)c2cccs2)cc1)c1ccccc1`, with 22.3%. `O=C(O)C(=O)O.c1ccc(OCCOCCN2CCN(C(c3ccccc3)c3ccccc3)CC2)cc1`: the “hERG current change (%, negative = inhibition) at 10uM” value is listed as -72.7%.

On to `COc1c(C(O)CC(C)C)ccc2c1C(=O)OCc1cc(C)cc(O)c1O2` (stereo not drawn), for which the “hERG current change (%, negative = inhibition) at 10uM” value was -4.77%. With `CCCOc1ccc(C(C)=O)cc1CC(C(=O)OCC)C(=O)OCC`, the “hERG current change (%, negative = inhibition) at 10uM” value worked out at 1.47%. Consider `O=C(N/C(=C/c1ccc(Br)cc1)C(=O)N1CCCC1)c1cccs1`, for which the “hERG current change (%, negative = inhibition) at 10uM” value is listed as -24.4%.

Consider `Cc1[nH]c2ccccc2c1CCN(Cc1cccnc1)C(=S)Nc1cccc(F)c1`, for which the “hERG current change (%, negative = inhibition) at 10uM” value is 11.4%. The figure for `CC(C)CSc1oc(-c2ccco2)nc1S(=O)(=O)c1ccccc1` is -19.7%; for `CSCC[C@H](NC(=O)Nc1ccc(C)cc1C)C(=O)O` it is 1.58%; for `CCOc1ccc2nc(SCC(=O)Nc3cc4c(cc3C(C)=O)OCO4)[nH]c2c1` it is -25.5%. Then `Cn1cccc1C(=O)N1CCN(c2cccc(C(F)(F)F)c2)CC1`, with -1.08%. The figure for `Nc1nc(SCC(=O)NCc2ccco2)[nH]c(=O)c1-c1ccccc1` is 22.3%. `Cc1cc(Br)c(NC(=O)c2ccccc2[N+](=O)[O-])cc1C`: the “hERG current change (%, negative = inhibition) at 10uM” value is reported as 16.7%. The figure for `CC1=CC(C)(C)Nc2ccc(OC(=O)c3ccco3)cc21` is -0.0756%. `COc1ccccc1OCC(=O)Nc1ccc(CSc2ccccc2)cc1C`: the “hERG current change (%, negative = inhibition) at 10uM” value is given as -1.28%. In the case of `COc1ccc(CNc2ccc3c(c2)ncn3-c2ccccc2OC)cc1`, the “hERG current change (%, negative = inhibition) at 10uM” value is reported as -23%. Take `Cc1ccc2c(c1)N(CC(=O)N1CCN(C3CCCCC3)CC1)C(=O)CO2`: the “hERG current change (%, negative = inhibition) at 10uM” value was -18.5%. The figure for `C=C(Br)CN1CCN(CC(=C)Br)CC1` is 3.96%.

For `O=c1[nH]c(CSc2ccccn2)nc2ccccc12`, the “hERG current change (%, negative = inhibition) at 10uM” value is on record as -2.72%. For `O=C(CNC(=O)c1ccc(Br)cc1)c1ccccc1`, the “hERG current change (%, negative = inhibition) at 10uM” value turned out to be 19.1%.

Take `COc1ccc(C(=O)OCC(=O)N2CCOCC2)cc1S(=O)(=O)N1CCOCC1`: the “hERG current change (%, negative = inhibition) at 10uM” value came out at 10.1%. On to `CC(Sc1nc2c(c(=O)[nH]1)CCCC2)C(=O)Nc1ccccc1C#N` (stereo not drawn), for which the “hERG current change (%, negative = inhibition) at 10uM” value is listed as 17.1%. Then `CCOC(=O)c1c(C)[nH]c(O)c1C=Nc1ccccc1`, with 10.9%. The figure for `O=C(Nc1ccc(N2CCN(C(=O)c3ccco3)CC2)cc1)c1ccccc1Br` is 12.4%; for `CCN1C(=O)N[C@@H](c2ccccc2)[C@H](C(=O)OC)[C@H]1C` it is -6.4%; for `Cc1ccccc1Nc1nc(N)nc(CN(C)Cc2ccccc2Cl)n1` it is -1.85%.

`NC(=O)c1ccccc1NC(=O)Nc1cccc(Cl)c1`: the “hERG current change (%, negative = inhibition) at 10uM” value is -8.62%. For `Fc1cccc(NC(=S)NCc2ccccn2)c1`, the “hERG current change (%, negative = inhibition) at 10uM” value was 4%. The figure for `O=c1c2ccccc2c(-c2ccccc2)nn1-c1cc(Cl)ccc1[N+](=O)[O-]` is -8.17%; for `COc1ccc(-c2cc(C(=O)NC3CCCC3)no2)cc1` it is 3.17%. Then `CCn1nc(C)cc1C(=O)N1CCCC(N2CCN(Cc3ccc4c(c3)OCO4)CC2)C1` (stereo not drawn), with 7.03%; and `COc1ccc(S(=O)(=O)N2CCOCC2)cc1NC(=O)c1ccc2c(c1)OCO2`, with 12.6%.

(Values after PMC4336329 (PLoS ONE, 2015).)
